Source: PubChem BioAssay AID720647 (Broad Institute, 2013)
Out of some 380,000 compounds screened, about 1,300 (0.34%) were called active. The shares of active, inactive and inconclusive entries below differ from those in the screen.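 How the source made its calls: active means drop in luminescence signal, shown as inhibition above about 50% in the replicate tests (limit read from the data, passing the limit was not always enough); inconclusive means probably only some replicates passing the limit; inactive means the rest.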 Some compounds were tested as several samples or in several runs, with calls that do not always agree.

These molecules were tested on Drosophila bursicon receptor LGR2 (rickets) (assay: inhibitors of bursicon-induced LGR2 CRE-luciferase signal, primary screen, cell-based, HEK293, CRE-luciferase reporter, bursicon stimulation (AID 720647;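 further: agonist challenge used bursicon conditioned medium at about half maximal strength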)). Details: bursicon-stimulated, 4 h, at 9.99 µM, hits give high values.

SMILES	inhibition
CC(=O)N1CC2(C1)[C@@H](c1ccc(-c3cccc(F)c3)cc1)[C@@H](CO)N2CC1CC1	inactive: -2.97%
O=C(/C=C/c1ccc(Cl)cc1Cl)Nc1cccc(S(=O)(=O)NC2=NCCC2)c1	inconclusive: 44.9%
O=C(Nc1ccc(Cl)c(C(F)(F)F)c1)NC1CC2CCCC(C1)N2Cc1ccccc1 (stereo not given)	active: 82.2%
Cc1ccc(NC(=O)c2ccc3c(c2)OCCO3)cc1C	active: 76.5%
CCN(CC(=O)Nc1ccc2c(c1)OCCO2)S(=O)(=O)c1ccc(C)cc1	inconclusive: -7.73%
CCCSc1nnc(CSc2ncccn2)n1C	inconclusive: 6.03%
Cc1ccc(S(=O)(=O)N(C)C[C@H]2Oc3cc(Br)ccc3S(=O)(=O)N([C@H](C)CO)C[C@H]2C)cc1	inconclusive: 1.19%
CCOC(=O)C1=CCC2C(=O)N(C3CCCCC3)C(=O)C12 (stereo not given)	inconclusive: -2.57%
C[C@@H]1CN([C@H](C)CO)C(=O)c2cc(NC(=O)Nc3cccc4ccccc34)ccc2O[C@@H](C)CCCCO[C@H]1CN(C)Cc1ccncc1	inactive: -13%
CNC(=S)N(Cc1ccc2c(c1)OCO2)C1CC(=O)N(c2ccc(F)cc2)C1=O (stereo not given)	inconclusive: -3.17%
COc1ccc(-c2cc3nc(C)n(N)c(=O)c3s2)cc1	active: 101%
O=C(CSc1nnc2c(n1)[nH]c1ccccc12)N1CCCCC1	inactive: -1.65%
O=Cc1ccc(-c2cccs2)s1	inconclusive: 76.5%
C[C@H]1CN([C@@H](C)CO)C(=O)c2cc(C#Cc3ccc(F)cc3)cnc2O[C@H]1CN(C)Cc1ccccn1	inactive: 7.84%
O=C(Nc1ccccc1)c1cn2ccccc2n1	inconclusive: 39.7%
COc1ccc(NC(=O)N(C)C[C@@H]2Oc3ccc(NC(=O)CCC(F)(F)F)cc3CC(=O)N([C@H](C)CO)C[C@@H]2C)cc1	inactive: -6.23%
OCc1cn(-c2ccccc2)nn1	inconclusive: -0.03%
O=C(/C=C/Nc1ccc(F)cc1F)c1ccco1	inconclusive: 39%
C[C@@H]1CCCCO[C@@H](CN(C)Cc2ccc(Cl)c(Cl)c2)[C@H](C)CN([C@@H](C)CO)C(=O)c2cc(NC(=O)Nc3cccc4ccccc34)ccc2O1	inactive: 18.8%
COC1=C(Br)C(=O)c2ncccc2C1=O	inconclusive: 62.5%
COc1ccc(C(=O)/C=C/C(=O)N(CC(=O)NC2CCCCC2)Cc2ccccc2OC)c(O)c1	inconclusive: 59.7%
COc1ccc2sc(NC(=O)c3ccco3)nc2c1	active: 75.1%
CCOc1cc(N2CCOCC2)c(OCC)cc1NC(=O)CN1CCCC1	inconclusive: -2.61%
CO[C@H]1CN(C)C(=O)c2ccc(NC(=O)C3CC3)cc2OC[C@H](C)N(Cc2cc(F)ccc2F)C[C@H]1C	inactive: -2.77%
Cc1cc(C(=O)CN2C(=O)C(=O)N(Cc3ccccc3)C2=O)c(C)n1-c1ccc2c(c1)OCCO2	inconclusive: 54.1%

SMILES	inhibition
O=C(C[C@H]1C=C[C@H](NC(=O)Nc2ccc3c(c2)OCO3)[C@@H](CO)O1)NCc1ccc(Cl)cc1	inactive: 6.34%
Cc1ccc2nc3cc([N+](=O)[O-])cc([N+](=O)[O-])c3cc2c1	inconclusive: 61.2%
C[C@@H]1CN([C@H](C)CO)S(=O)(=O)c2ccc(-c3ccccc3)cc2O[C@@H]1CN(C)C(=O)C1CCC1	inactive: 0.477%
COc1ccc(NC(=O)N(C)C[C@H]2OCCCC[C@@H](C)Oc3ccc(NC(=O)Nc4ccc5c(c4)OCO5)cc3C(=O)N([C@@H](C)CO)C[C@H]2C)cc1	inactive: -7.53%
COC(=O)C1=C(C)N(Cc2ccc(C(F)(F)F)cc2)C(=NCc2ccccc2)NC1c1ccc(C(F)(F)F)cc1 (stereo not given)	inconclusive: 27.6%
C1CCC(C(CC2CCCCN2)C2CCCCC2)CC1 (stereo not given)	active: 57.9%
Cc1cc(C)c(C#N)c(SCc2nnc(-c3ccccc3)o2)n1	active: 77.1%
CCOC(=O)N1C(=O)[C@@](c2ccc(Cl)cc2)(C(C)C)N1C(=O)OCC	inconclusive: 106%
Cc1cnc(NC(=O)c2sc3ccccc3c2Cl)s1	inconclusive: 47.4%
CO[C@H]1/C=C/O[C@@]2(C)Oc3c(C)c(O)c4c(O)c(c5c(c4c3C2=O)NC2(CCN(CC(C)C)CC2)N=5)=NC(=O)/C(C)=C\C=C\[C@H](C)[C@H](O)[C@@H](C)[C@@H](O)[C@@H](C)[C@H](OC(C)=O)[C@@H]1C	inconclusive: 14.8%
COC(=O)C1=C(C)N(Cc2ccc(C(F)(F)F)cc2)C(=NCc2ccc3c(c2)OCO3)NC1c1cccc(Cl)c1 (stereo not given)	inconclusive: 72.2%
C=CCn1c2ccccc2c(=O)c2cc(C#CC3(O)CCCCC3)ccc21	inconclusive: 5.03%
O=C1c2cccc3c([N+](=O)[O-])ccc(c23)C(=O)N1CC1CCCO1 (stereo not given)	inconclusive: 60.3%
Clc1ccc2c(N/N=C/c3ccc(Br)cc3)ccnc2c1	inconclusive: 48.8%
Cn1c(/C=C/c2ccc(Cl)cc2)c([N+](=O)[O-])c(=O)n(C)c1=O	inconclusive: 51.2%
Cc1cc(C(=O)Cn2nnc3ccccc3c2=O)c(C)n1-c1ccccc1F	inconclusive: 40.9%
O=C(c1ccccc1)c1ccc(O)cc1O	inactive: 2.07%
Cc1ccc(NC(=O)c2ncn(CC(=O)N3CCN(c4ccccn4)CC3)n2)cc1C	inconclusive: 58.5%
O=C(N/N=C\c1ccc([N+](=O)[O-])s1)C1COc2ccccc2O1 (stereo not given)	inactive: 10.7%
CCc1nnc2cccc(Cl)n12	inconclusive: 51.7%
C[C@@H]1CCCCO[C@H](CN(C)C(=O)c2ccccc2)[C@H](C)CN([C@@H](C)CO)C(=O)c2cc(NS(=O)(=O)c3ccc(Cl)cc3)ccc2O1	inactive: 6.59%
CN1CCN(c2ccc(-c3ccc4ccccc4n3)cc2)CC1	active: 102%
COc1cccc(NC(=O)Nc2nc(-c3ccc(OC)c(OC)c3)cs2)c1	inconclusive: 105%
COCCn1c(C)cc(C(=O)CSc2nnnn2C2CCCC2)c1C	active: 79.9%
CN(c1cccc(Cl)c1)S(=O)(=O)c1cccc(C(=O)Nc2nc3ccccc3[nH]2)c1	inconclusive: 49.8%
